Read counts are not given, so values of variants with three or more changes are uncertain.
B1: CPEB3 Ribozyme (parent)
chain: UAACAGGGGGCCACAGCAGAAGCGUUCACGUCGCAGCCCCUGUCAGAUUCUGGUGAAUCUGCGAAUUCUGCUGUAUAUCUC

Variants of: B1
Assay: self-cleavage, relative activity (ratio to wild type); higher = more cleavage; in vitro, sequencing
Method in brief: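 CPEB3 self-cleaving ribozyme mutant libraries were made by rounds of error-prone PCR, barcoded, and transcribed in vitro with T7 RNA polymerase for 5 hours at 37°C. Cleavage occurred during transcription and a 15 min DNase I step before EDTA stop. RNAs were reverse transcribed with template switching and Illumina-sequenced, with DNA sequencing mapping barcodes to variants. Relative activity is the variant's cleaved/total read fraction divided by wild type's (minimum 5 reads), averaged across three batches.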

| Variant | self-cleavage |
| --- | --- |
| UAGCAGGGGGCCACCGCAGAAGUGUUCACGUCGCAGCCCCCGUCAGAUUCUGGUGAAUCUGCGAAUUCAGCUGUAUAUCUC | 0.62 |
| UAGCAGGGGGCCUCAGCAGAAGCGUACACAUCGCAGCCCCCGUCAGAUUCUGGUGAUUCUGCGAAUCCUGCUGUAUAUCUC | 0.06 |
| UAGCAGGGGGCCACCGCAGAAGCGUUCACGUCGCAGCCCCUGUCAGAUUCUGGUGAAUCUGCGAAUUCUACUGUAUAUCUC | 0.22 |
| UAGCAGGGGGCCACGGCAGGAGCGUUCACGUCGCGGCCCCUGUCAGACUCUGGUGAAUCUGCGAACUCUGCUGUAUAUCUC | 0.53 |
| UAGCAGGGGGCCUCAGCAGAAGCGUUCACGUCGCAGCCCCUGUCAGAUCCUGGUGAAUCUGGGAAUUCUGCUGUAUACCUC | 0.29 |
| UAGCAGGGGGCCGCAGCAGAAGCGUUCACGUCGCAGCCCCUGACAGAUUCUGGUGAAUCUGCGAAUUCUGCUGUAUACCUC | 1.03 |
| UAGCAGGGGGCCUCAGCAGAAGCGUUCACGUCGCAGCCCCUGUCAGAUUCUGGCGAAACUGCGAAUUCCGCUGUAUAUCCC | 0.18 |
| UAGCAGGGGGCCGCAGCAGAAGCGUUCACGUCGCAGCCCCAGUCAGGUUCUGGUGAAUCUGCGAAUUCUGCCGUAUAUCUC | 0.56 |
| UAGCAGGGGGCCUCAGCAGAAGCGUUCACGCGGCAGCCCCCGUCAGAUUCUGGUGGAUCUGCGAAUUCAGCUGUAUAUCUC | 0.2 |
| UAGCAGGGGGCCUCAGCAGGAGCGUUCACGUCGCACCCCCUGCCAGAUUCUGGUGAACCUGCGAAUUCUGCUGUAUAUCUC | 0.1 |
| UAGCAGGGGGCCUCAGCAGAAGCGUUCACGUCGCAGCCCCUGUCAGAUUCUGGCGAAUCUGCGAAUUCUGCUGUAUAUCUC | 1.17 |
| UAGCAGGGGGCCUCAGCAAAAGCGUUCACGUCGCAGCCCCUGUCGGUUUCUGGUGAAUCUGCGAAUUCUGCUGUAUAUCUC | 0.39 |
| UAGCAGGGGGCCGCAGCAGAAGCAUUCACGUCGCAGCCCCUGUCAGAUUCUGGUGAAUCUGCGAAUUCUGCUGUACAUCUC | 0.46 |
| UAGCAGGGGGCCGCAGCAGAAGCGUUCACGUCACAGCCCCUGUCAGAUUCUGGUGAAUCUGCGAAUUCUGCUGUAUAUCUC | 0.55 |
| UAGCAGGGGGCCACCGCAGAAGCGUUCACGUCGCUGCCCCUGUCAGACUCUGGUGAAUCUGCGAAUCCUGCUGUAUAUCUC | 0.3 |
| UAGCAGGGGGCCUCAGCAGAAGCGUUCACGUCGCAGCCCCUGUCAGAUUCUGGUGAACCUGCGAAUUCUGCUGUAUAUCUC | 0.32 |
| UAGCAGGGGGCCUCAGCAUAAGCGUUCACGUCGCAGCCCCUGUCAGGUUCUGGUGAAUCUGCGAAUUCUGCUGUAUAUCUC | 0.14 |

| Variant | self-cleavage |
| --- | --- |
| UAGCAGGGGGCCGCAGCAGAAGCGUUCAUGUCGCUGCCCCUGACAGAUUCUGGUGAAUCUGCGAAUUCUGCUGUAAAUCUC | 0.33 |
| UAGCAGGGGGCCUCAGCAGAAGCGUUCGCGUCGCAGCCCCUGUCAGAUUCUGGUGAGUCUGCGAAUUCUGCUGUAUAUCUC | 0.51 |
| UAGCAGGGGGCCUCAGCAGAAGCGUCCACGUCGCAGCCCCUGCCAGAUUCUGGUGAAUCUGCGUAUUCUGCUGUAUAUCUC | 0.41 |
| UAGCAGGGGGCCACGGCAGUAGCGCCCACGCCGCAGCCCCUGUCAGAUUCUGGCGAAUCUGCGAAUUCUGCUGUAUAUCUC | 0.41 |
| UAGCAGGGGGCCGCAGCAGAAGCGUUCACGUCGCAGCCCCUGUCAGAUUCUGGUGAAUCUUCGAAUUCUGCUGUAUAUCUC | 0.52 |
| UAGCAGGGGGCCGCAGCAGAAGCGUUCACGUCGCAGCCCCUGUCAGAUUCUGGAGAAUCUGCGAGUUCUGCUGUAUAUCUC | 0.72 |
| UAGCAGGGGGCCUCAGCAAAAGCGUUCACGUCGCAGCCCCUGUCAGUUUCUGGUGAAUCUGCGAAUUCUGCUGUAUAUCUC | 0.4 |
| UAGCAGGGGGCCUCAGCAGAAGCGUUCACGUUGCAGCCCCUGUCAGAUUCUGGUGUAUCUGCGAAUUCUGCUGUAUAUCCC | 0.06 |
| UAGCAGGGGGCCUCAGCAGAAGCGUUCACGUCGAAGCCCCUGUCAGAUUCUGGUGAACCUGCGAAUUCUGCCGUAUAUCUC | 0.13 |
| UAGCAGGGGGCCACCACAGAAGCGUUCACGUCGCAGCCCCUGUCAGAUUCUGGUGAGUCUGCGAAUUCUGCUGUAUAUCUC | 0.27 |
| UAGCAGGGGGCCGCAGCAGAAGCGUUCACGUCGCAGCCCAUGGCAGAUUCUGGUGAAUCUGCGAAUCCCGCUGCAUAUCUC | 0.04 |
| UAGCAGGGGGCCACGGCAGAAGCGUUCACGUCGCAGCCCCUGUCUGAUUCUGGUGAAUCUGCGAAUUCUGCUGUGUACCUC | 0.26 |
| UAGCAGGGGGCCUCAGCAGGAGCGUUCACGCCGCAGCCCCUGUCGGAUACUGGUGAAUCUGCGAAUUCUGCUGUAUAUCUC | 0.61 |
| UAGCAGGGGGCCUCAUCAGAAGCGUUCACGUCGUAGCCCCUGUCAGAUUCUGGUGAAUCUGCGAAUUCUGCUAUAUAUCUC | 0.09 |
| UAGCAGGGGGCCGCAGCAGAAGCGUUCACGUCGCAGCCCCUGUCAGAUUCUGGUGAAUCUGCGAAUUCUGCAGUAUAUCUC | 0.57 |
| UAGCAGGGGGCCUCAGCAGAAGCGUACUCGUCGCAGCCCCUGUCAGAUUCUGGUGAAUCUGCGAAUUCUGCUGUAUAUCUC | 0.61 |
| UAGCAGGGGGCCUCAGCAGAAGCGUUCACGCCGCAGCCCCUGUCAGAUUCUGGUGAACCUGCGAAUUCUGCCGUAUAUCUC | 0.21 |
